# Measurements reported in the BET-seq Pho4 binding data (Le et al. 2018).
# The list shows a part of the results. The energies were worked out here from pooled read counts, against the library average; single values are noisy.
# Target: T1, Pho4 (S. cerevisiae) (UniProt P07270)
# T1 sequence: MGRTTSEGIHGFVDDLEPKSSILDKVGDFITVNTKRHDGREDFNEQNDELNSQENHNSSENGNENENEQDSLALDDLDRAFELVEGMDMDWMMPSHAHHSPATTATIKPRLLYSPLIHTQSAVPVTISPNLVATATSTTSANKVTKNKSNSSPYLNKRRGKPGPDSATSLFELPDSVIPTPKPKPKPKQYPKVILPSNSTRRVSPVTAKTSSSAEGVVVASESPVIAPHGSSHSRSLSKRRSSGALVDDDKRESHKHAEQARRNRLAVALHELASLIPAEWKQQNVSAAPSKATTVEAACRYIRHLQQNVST
# Assay: relative binding free energy (BET-seq); higher = weaker binding
# Conditions: reference: library average
row,Sequence,relative binding free energy
1,GGTGTCACGTGTCTAA,0.13 kcal/mol
2,GTCTGCACGTGATGGT,0.3 kcal/mol
3,GGGGACACGTGACGGG,0.22 kcal/mol
4,AGAAGCACGTGTGTGA,-0.14 kcal/mol
5,AAGGGCACGTGGGTGG,-0.19 kcal/mol
6,CGGGGCACGTGGAGGG,-0.09 kcal/mol
7,GTGAGCACGTGCGATA,0.07 kcal/mol
8,TTTTTCACGTGGATCG,0.31 kcal/mol
9,TGTTACACGTGGGGAG,-0.01 kcal/mol
10,TTTCTCACGTGCGTGT,0.09 kcal/mol
11,TTTTGCACGTGCGAGT,0.06 kcal/mol
12,TATGGCACGTGAAGGG,0.25 kcal/mol
13,GATAGCACGTGGAGTT,-0.01 kcal/mol
14,GGGCTCACGTGTAGAG,0.27 kcal/mol
15,GCGTTCACGTGTCTTG,0.22 kcal/mol
16,CGTATCACGTGTTTAT,0.07 kcal/mol
17,CTGGGCACGTGCATGT,-0.26 kcal/mol
18,ATCTACACGTGGGGAG,0.06 kcal/mol
19,CGTGGCACGTGGGGTG,-0.24 kcal/mol
20,GGTGGCACGTGTAGTC,-0.02 kcal/mol
21,GTTAGCACGTGCATGG,-0.01 kcal/mol
22,TTGAACACGTGGTTTC,0.01 kcal/mol
23,GATTACACGTGAGGAG,0.4 kcal/mol
24,GTAGTCACGTGTAGTT,0.25 kcal/mol
25,GTTTTCACGTGTTGTC,0.31 kcal/mol

row,Sequence,relative binding free energy
1,TAATACACGTGGCTGG,-0.02 kcal/mol
2,TCTTACACGTGGGTAG,-0.05 kcal/mol
3,GTTGCCACGTGTAGGC,0.1 kcal/mol
4,GTGGACACGTGTCTTG,0.04 kcal/mol
5,TATTACACGTGCTTGG,0.1 kcal/mol
6,GGGGGCACGTGTGCAT,-0.09 kcal/mol
7,TTCTTCACGTGTAGTA,0.18 kcal/mol
8,TAGGCCACGTGTAGTT,-0.03 kcal/mol
9,GCTTTCACGTGTATTT,0.28 kcal/mol
10,GGCAGCACGTGTGTTG,-0.06 kcal/mol
11,GGAAACACGTGGGCTG,-0.05 kcal/mol
12,GTGTGCACGTGGAAGC,0.06 kcal/mol
13,GGTCACACGTGTGGAT,0.16 kcal/mol
14,ATTTCCACGTGGAGGT,-0.04 kcal/mol
15,GGGTTCACGTGGGGCC,0.23 kcal/mol
16,GGTGACACGTGCCGGT,0.01 kcal/mol
17,TCGTTCACGTGACGGG,0.39 kcal/mol
18,TTTTGCACGTGTCATG,0.13 kcal/mol
19,AGGAACACGTGTAGGT,0.03 kcal/mol
20,TTTCGCACGTGAGTAG,0.02 kcal/mol
21,ATGCGCACGTGGTTTT,-0.2 kcal/mol
22,TTAAGCACGTGAAAAT,0.34 kcal/mol
23,AAGGGCACGTGCTTGT,-0.16 kcal/mol
24,TCTTCCACGTGGTGTT,0.12 kcal/mol
25,GGAGTCACGTGCGTAT,0.03 kcal/mol

row,Sequence,relative binding free energy
1,GGCTGCACGTGGCAGG,0.06 kcal/mol
2,GGTAACACGTGTACTG,0.08 kcal/mol
3,TAGCACACGTGTGATT,0.24 kcal/mol
4,GGCGCCACGTGTGGCT,0.08 kcal/mol
5,GTGTTCACGTGGGCAG,0.25 kcal/mol
6,GGAGGCACGTGGGTTG,-0.21 kcal/mol
7,AGGGGCACGTGCAGGA,-0.19 kcal/mol
8,AAAGGCACGTGAATGG,0.22 kcal/mol
9,CGTTGCACGTGATCGG,0.07 kcal/mol
10,AAAGGCACGTGGGATT,-0.02 kcal/mol
11,GTAAGCACGTGGTGCA,-0.19 kcal/mol
12,TAAGTCACGTGTTATT,0.19 kcal/mol
13,TGGACCACGTGTAGTT,0.08 kcal/mol
14,CTAGGCACGTGTTAGA,-0.09 kcal/mol
15,GCGCGCACGTGGGAGT,-0.17 kcal/mol
16,TGGTACACGTGTGCAA,0.1 kcal/mol
17,GATTACACGTGGGTCG,0.04 kcal/mol
18,TTACTCACGTGTGCGT,0.24 kcal/mol
19,ATAATCACGTGTGCTG,0.11 kcal/mol
20,TATTACACGTGATAAG,0.09 kcal/mol
21,TGTTTCACGTGTACGG,0.41 kcal/mol
22,GGTGGCACGTGTGGCT,0 kcal/mol
23,TACGCCACGTGGGGGT,-0.25 kcal/mol
24,GGGGACACGTGAAATA,0.44 kcal/mol
25,TTTAACACGTGTGTAT,-0.07 kcal/mol

row,Sequence,relative binding free energy
1,TGTTCCACGTGGATTA,-0.02 kcal/mol
2,CGACACACGTGGTGGG,0.08 kcal/mol
3,AGGCACACGTGTTGTT,-0.07 kcal/mol
4,GTTAGCACGTGAGTTT,0.3 kcal/mol
5,ATCAGCACGTGGGGTC,-0.1 kcal/mol
6,TTTAGCACGTGAGTAG,0.24 kcal/mol
7,GGCCGCACGTGGGAGG,-0.11 kcal/mol
8,TCGGTCACGTGAGGTG,0.27 kcal/mol
9,GTCTCCACGTGGGGGA,-0.01 kcal/mol
10,CATTTCACGTGGTGGA,0.23 kcal/mol
11,CATGGCACGTGTACTG,0.06 kcal/mol
12,TATATCACGTGACGTG,0.19 kcal/mol
13,TTGAGCACGTGGCGAT,-0.13 kcal/mol
14,ATTGGCACGTGACTTA,0 kcal/mol
15,AATGCCACGTGCGGTG,-0.11 kcal/mol
16,TCTGTCACGTGTTAGG,0.03 kcal/mol
17,CCAGGCACGTGTTGGG,-0.02 kcal/mol
18,GTGTTCACGTGAGTTG,0.36 kcal/mol
19,ATTAGCACGTGGGACT,-0.19 kcal/mol
20,CTTGACACGTGAGTTA,0.08 kcal/mol
21,TGCAACACGTGTAGAG,0.15 kcal/mol
22,ATCAGCACGTGGGTGG,-0.1 kcal/mol
23,GACTACACGTGTGTTG,0.18 kcal/mol
24,TTGATCACGTGGAGTT,0.2 kcal/mol
25,AGGGGCACGTGTTAAA,-0.07 kcal/mol

row,Sequence,relative binding free energy
1,AATGGCACGTGGTTGC,-0.13 kcal/mol
2,TATGGCACGTGACGAT,0.12 kcal/mol
3,AGATTCACGTGTGTGC,0.15 kcal/mol
4,TCTGCCACGTGTTGGA,0.09 kcal/mol
5,GGATTCACGTGTTCTG,0.31 kcal/mol
6,TATCGCACGTGTTTTT,0 kcal/mol
7,CTGGACACGTGAGGCT,0.29 kcal/mol
8,TGTGCCACGTGGAATT,0.06 kcal/mol
9,AGATTCACGTGCGTGG,0.29 kcal/mol
10,GTCGTCACGTGCTTTG,0.11 kcal/mol
11,GGTGGCACGTGTGCTA,0.01 kcal/mol
12,TATTACACGTGGGGTC,-0.07 kcal/mol
13,TCCGGCACGTGTGTTT,-0.06 kcal/mol
14,TTTTGCACGTGGAAAG,-0.02 kcal/mol
15,AGTGGCACGTGCCGGA,-0.24 kcal/mol
16,ATGAGCACGTGGTTGT,-0.15 kcal/mol
17,GGTGTCACGTGGCAGG,-0.02 kcal/mol
18,TGTTACACGTGCAGGA,0.09 kcal/mol
19,TAATTCACGTGAGTTG,0.37 kcal/mol
20,TAGTTCACGTGATTGA,0.26 kcal/mol
21,TGAAGCACGTGGTGAT,-0.12 kcal/mol
22,TAATACACGTGTGATA,0.1 kcal/mol
23,GGTACCACGTGTGTTA,0.06 kcal/mol
24,AGAGTCACGTGGTGTT,0.13 kcal/mol
25,AGGCACACGTGGTATT,0.02 kcal/mol

row,Sequence,relative binding free energy
1,TGTTTCACGTGGTAGC,0.35 kcal/mol
2,TGGGACACGTGGGAAG,0.08 kcal/mol
3,GGGCGCACGTGGTGAG,-0.05 kcal/mol
4,TAGCACACGTGGGTGG,-0.04 kcal/mol
5,TTGCACACGTGGGGAT,-0.03 kcal/mol
6,TGGGTCACGTGTTTTT,0.22 kcal/mol
7,GGTATCACGTGAGTAT,0.45 kcal/mol
8,ATTCGCACGTGTATGT,-0.13 kcal/mol
9,GGTCTCACGTGCAGTG,0.19 kcal/mol
10,CTTGTCACGTGTGGAA,0.1 kcal/mol
11,TGTGACACGTGTACAG,0.09 kcal/mol
12,AGAGTCACGTGCGATT,0.29 kcal/mol
13,TCTTTCACGTGGTTGT,0.14 kcal/mol
14,AAGAGCACGTGGGCAG,-0.23 kcal/mol
15,GGGAGCACGTGAGTAT,0.16 kcal/mol
16,ACGGTCACGTGTAGGG,0.19 kcal/mol
17,TATTCCACGTGCGTGT,0.05 kcal/mol
18,GTCATCACGTGAGGGA,0.35 kcal/mol
19,TGCGGCACGTGCGGGC,-0.07 kcal/mol
20,TAGGTCACGTGGTGTC,0.15 kcal/mol
21,GGCGCCACGTGGGGGT,-0.24 kcal/mol
